Laboratory results from PubChem BioAssay (NCATS).
“And” between values parts separate entries of the source, which are not always exact repeats. Equal entries are not always repeated. The shares of active, inactive and inconclusive entries below differ from those in the screen. Potencies beside an inconclusive call are fits to weak or partial responses and may not hold up. Some compounds were tested as several samples or in several runs, with calls that do not always agree. The source made the active and inactive calls. Calls follow the shape of the dose curve; as a rule, active = well fitted curve in the direction sought with a large enough effect; inconclusive = small, poorly fitted or top-dose-only effect, or another doubt; inactive = no such curve, though single readings can be large; an effect the other way counts as inactive or inconclusive.

What was measured:
[1] = Viability qHTS for spleen associated tyrosine kinase inhibitor (SYKi) naive MV4-11 cells (AID 1963823); settings: MV4-11 AML viability, CellTiter-Glo luminescence, 72 h; viability (% of control): at 45 µM (top of the series); also: nearly all actives have a fitted effect of over 40% in size
Summary of the method: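 Viability of MV4-11 AML cells lacking prior SYK inhibitor exposure is scored by CellTiter-Glo luminescence following 72 hr compound incubation at 37 C, 5% CO2, seeded at 500 cells per well.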

[2] = Viability qHTS for spleen associated tyrosine kinase inhibitor (SYKi) drug resistant MV4-11 cells (AID 1963824); also: nearly all actives have a fitted effect of over 35% in size
Summary of the method: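 SYK-inhibitor-resistant MV4-11 AML cells were seeded at 500 per well onto compound and cultured 72 hours (37 °C, 5% CO2). CellTiter-Glo was then added, and after 10 min at room temperature, luminescence gave viability.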

[3] = Quantitative highthroughput screen to assess conditional lethalithy of NOMO1 cells grown in RPMI1640 with dialyzed fetal bovine serum (RPMI+ds) (AID 1963877); also: nearly all actives have a fitted effect of over 30% in size;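 as to Viability: 100% = DMSO control wells and 0% = empty wells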
Summary of the method: (§1)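 Each medium arm—HPLM with 10% dialyzed FBS, or RPMI1640 with 5 mM glucose and 10% untreated or dialyzed FBS—was screened against an 11-point, 3-fold compound titration for 48 h at 37 °C, with CellTiter-Glo luminescence as endpoint.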

[4] = Quantitative highthroughput screen to assess conditional lethalithy of P12 Ichikawa cells grown in RPMI1640 with dialyzed fetal bovine serum (RPMI+ds) (AID 1963880); settings: Potency: P12-Ichikawa viability; also: nearly all actives have a fitted effect of over 35% in size;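 as to Viability: 100% = DMSO wells and 0% = empty wells on each plate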
Summary of the method: as §1

[5] = Quantitative highthroughput screen to assess conditional lethalithy of SEM cells grown in Human Plasma-Like Medium with dialyzed fetal bovine serum (HPLM+ds) (AID 1963882); also: nearly all actives have a fitted effect of over 35% in size
Summary of the method: as §1

[6] = Quantitative highthroughput screen to assess conditional lethalithy of SEM cells grown in RPMI1640 with dialyzed fetal bovine serum (RPMI+ds) (AID 1963884); settings: SEM B-ALL cells, RPMI+dialyzed FBS, CellTiter-Glo viability, 48 h; viability: at 45.8 µM (top of the series); also: nearly all actives have a fitted effect of over 35% in size;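 as to Viability: 100% = DMSO control wells and 0% = empty wells without cells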
Summary of the method: as §1

[7] = Quantitative highthroughput screen to assess conditional lethalithy of P12 Ichikawa cells grown in RPMI1640 with untreated serum (RPMI+s) (AID 1963881); settings: Potency: viability; also: nearly all actives have a fitted effect of over 35% in size;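 as to Viability: 100% = DMSO wells and 0% = empty wells without cells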
Summary of the method: as §1

[8] = Quantitative highthroughput screen to assess conditional lethalithy of SEM cells grown in RPMI1640 with unreated serum (RPMI+s) (AID 1963883); settings: SEM B-ALL cells, CellTiter-Glo viability, 48 h; viability: at 45.8 µM (top of the series); also: nearly all actives have a fitted effect of over 35% in size;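 as to Viability: 100% = DMSO wells and 0% = empty wells without cells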
Summary of the method: as §1

[9] = Cellular viability qHTS for adrenocortical cancer (ACC) cell line SW-13 (AID 1963989); settings: SW-13 ACC cells viability, CellTiter-Glo, 48 h; activity (max response): stronger effect = lower value; also: nearly all actives have a fitted effect of over 65% in size;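 as to activity (max response): cells grown in serum-free medium with ITS supplement; % is scaled to controls: 0 for no effect and ±100 for the full control effect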
Summary of the method: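 Compound titrations (up to 46 uM final, in DMSO) were applied to SW-13 cells for 48 h at 37C/5% CO2. Reading used CellTiter-Glo after 20 min at room temperature; fitted curves yielded IC50 and efficacy.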

[10] = Cellular viability qHTS for adrenocortical cancer (ACC) cell line NCI-H295R (AID 1963990); settings: CellTiter-Glo ATP luminescence, 48 h; activity change, negative = viability loss: at 46.1 µM (top of the series); also: nearly all actives have a fitted effect of over 60% in size;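 as to activity change, negative = viability loss: 0% = DMSO only wells and -100% = full killing with cytotoxic reference compound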
Summary of the method: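 Readout: CellTiter-Glo luminescence, 20 min RT. Exposure: 48 h, 37C/5% CO2. Cells: NCI-H295R, ITS-DMEM serum-free. Range: up to 46 uM. Analysis: 4PL fit, IC50 plus efficacy.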
Potency is read from the fitted curve at half-maximal effect; tags tell the direction and shape of the fitted curve.

| Compound | Potency [1] | Potency [2] | Potency [3] | Potency [4] | Potency [5] | Potency [6] | Potency [7] | Potency [8] | Potency [9] | activity (max response) [9] | Potency [10] |
| --- | --- | --- | --- | --- | --- | --- | --- | --- | --- | --- | --- |
| c1cc(CN2CCCNCCNCCCNCC2)ccc1CN1CCCNCCNCCCNCC1 | inactive | inconclusive: 16.6 µM [cytotoxic, partial curve, poor fit] | inactive | inactive | inactive | inactive |  |  |  |  |  |
| CC(C)(Sc1ccc(CCN(CCCCC2CCCCC2)C(=O)NC2CCCCC2)cc1)C(=O)O | inconclusive: 29.1 µM [cytotoxic, single point] and inconclusive: 23.5 µM [cytotoxic, partial curve] | inconclusive: 13 µM [cytotoxic, partial curve, poor fit] and active: 18.6 µM | inactive | inconclusive: 37.2 µM [cytotoxic, partial curve, poor fit] |  |  | inactive | inactive |  |  |  |
| CN1C(=O)C[C@H](C(=O)N[C@@H](Cc2cnc[nH]2)C(=O)N2CCC[C@@H]2C(N)=O)NC1=O | inconclusive: 5.9 µM [cytotoxic, full curve, poor fit] | inconclusive: 9.34 µM [cytotoxic, full curve, poor fit] | inactive |  |  | inconclusive: 23.5 µM [cytotoxic, single point] | inactive | inconclusive: 20.9 µM [cytotoxic, partial curve] | inconclusive: 31.6 µM [cytotoxic, single point] |  |  |
| O=[N+]([O-])c1ccc(Nc2ccccc2-c2ccccc2)c2nonc12 | inconclusive: 16.6 µM [cytotoxic, partial curve] | inconclusive: 14.8 µM [cytotoxic, partial curve] | inactive |  | inconclusive: 14.8 µM [cytotoxic, partial curve, poor fit] | inconclusive: 1.18 µM [cytotoxic, full curve] | inactive | inconclusive: 0.0935 µM [cytotoxic, full curve, poor fit] | active: 8.91 µM |  |  |
| CN1C(C(=O)Nc2ccccn2)=C(O)c2ccccc2S1(=O)=O | inconclusive: 23.7 µM [cytotoxic, single point] and inconclusive: 11.8 µM [cytotoxic, single point] | inconclusive: 29.9 µM [cytotoxic, single point] and inconclusive: 11.8 µM [cytotoxic, single point] | inconclusive: 33.2 µM [cytotoxic, single point] |  | inconclusive: 0.296 µM [cytotoxic, partial curve, poor fit] | inconclusive: 0.264 µM [cytotoxic, full curve, poor fit] |  | inconclusive: 0.296 µM [cytotoxic, full curve, poor fit] |  | inactive: -11.3% and inactive: -19.8% |  |
| CS(=O)(=O)c1ccc(C(=O)Nc2ccc(Cl)c(-c3ccccn3)c2)c(Cl)c1 | inconclusive: 29.1 µM [cytotoxic, single point] and inconclusive: 8.33 µM [cytotoxic, partial curve] | inconclusive: 29.1 µM [cytotoxic, partial curve, poor fit] and inconclusive: 18.6 µM [cytotoxic, partial curve] | inactive |  |  | inactive |  | inconclusive: 11.8 µM [cytotoxic, single point] |  | inactive: -0.792% |  |
| C[C@](N)(Cc1ccc(O)c(O)c1)C(=O)O | inactive and inconclusive: 16.6 µM [cytotoxic, partial curve] | inactive | inactive |  |  | active: 23.5 µM | inactive |  |  |  | inactive |
| Cc1ccccc1N1C(=O)c2cc(S(N)(=O)=O)c(Cl)cc2NC1C (centres undefined) | inactive and inconclusive: 9.34 µM [cytotoxic, partial curve, poor fit] | inconclusive: 11.8 µM [cytotoxic, single point] | inconclusive: 10.5 µM [cytotoxic, single point] |  | inactive | inactive |  |  | inconclusive: 0.0447 µM [rising, full curve] |  |  |
| Cc1ccc(-n2nc(C(C)(C)C)cc2NC(=O)Nc2ccc(OCCN3CCOCC3)c3ccccc23)cc1 | inconclusive: 33.5 µM [cytotoxic, single point] and inconclusive: 18.6 µM [cytotoxic, partial curve] | inconclusive: 21.1 µM [cytotoxic, partial curve] and inconclusive: 18.6 µM [cytotoxic, partial curve] | inactive |  |  |  | inconclusive: 11.8 µM [cytotoxic, full curve, poor fit] | active: 0.132 µM | inconclusive: 18.4 µM [cytotoxic, single point] |  | inconclusive: 32.6 µM [cytotoxic, single point] |
